Our source for the self-cleavage values is the RNAGym collection of RNA variant scans (doi:10.7554/elife.90254).

The chains are these.
B1: LINE1-full (parent)
chain: UACGUAGGUGGUUUUCCCCUGAUAGUGCUAAGGGGGCCUGGAAGUUUGGACUGGGCAGAGCUCAACACAGCGUGGCAAAGUGGCUGUGGCUAGACUGCCUCUCUGGAUUCCUCGUCACUCAGCAGGGCAUCUCUGAGAGAAAUGCC

The source gives no read counts; variants with many changes may rest on few reads.

This series covers variants of B1. The series can be described thus: self-cleavage, relative activity (ratio to wild type); higher = more cleavage; in vitro, sequencing; the parent is a self-cleaving ribozyme.
Turning to U26C A140G C146A, the self-cleavage is 1.02.

In the case of U26C C38A U39C U46A A77G, the self-cleavage was determined as 1.56. For the variant U29C A50G C113A A129G A141G, the self-cleavage stood at 1.17.

Take U29C A77G A138G: the self-cleavage was determined as 2.44.

Take U29A U46G A129U: the self-cleavage stood at 0.8.

U26C A77G U85A: the self-cleavage is 0.43.

Turning to G27A A94G C111U A138G A140U A142G, the self-cleavage came out at 0. Next, G27A U112C A121G: 0.42; G27A A31G U119C: 1.58; U26C U62C A79U: 0.

G27A U29C A67U A136G: the self-cleavage is 0.04. Next, G25A A69G C99U: 0.16. Next, U26A U130C U143C: 0.76.

As to U26C A64G A79G U134C, the self-cleavage came out at 0. Next, U26A U91A C110U: 0.44; U26A A59G A69U: 0.08; C28A G40A A67G U81A U119A: 0.14. The result for C28U U52A U96A U104C U108C C116A reads 0.1; that for U26A A121G A141G, 1.33; that for U26C C61U A67G, 0.

On to G27A U96C U109A A121G, for which the self-cleavage is 0.04. The result for U26C A43U C56U reads 0.12; that for U29C A67U U96A A141C, 0; that for U26C U46C U85C, 0.21. Next, U26C U46A A50G U52C U102C: 0.

U26C G72A A129U U132C: the self-cleavage worked out at 1.67. The result for U26A G55A U73A C110U reads 0.06. Next, U29A A94G A129U: 0.1. Next, U26A U87A U96C: 0.13; U26C A78G A136G: 1.31; G25A U39A U47C A138G: 1.41. For U26A C38U A136G, the self-cleavage came out at 1.24. Next, U26C U85C U108C A117U: 0; C28G A78U G125U: 0.88. For U26A U46C G89A U115C A117G, the self-cleavage was determined as 0. The result for G25A A42G G60A reads 0.09. The result for U29C A64U A121G reads 1.04; that for U26C U81A U85C U104C U143C, 0. Turning to U26C U39A A78G A140G U143C, the self-cleavage was 0.55. The result for U26C A43G G127A reads 0.91; that for A24U U45C U109C A124G, 1.23; that for U29A C61A A69C, 0.06. Regarding U26C A30G C63U A140G, the self-cleavage worked out at 0.41. Next, U26C A78G A79U: 0.88; U26C C51U U52C: 1.87; U26A A69G A77G A142U: 0. Next, U29C A77G U143G: 2.37; U26A A138G U143C: 2.26. For the variant U29C A31U G88A A107G U112A, the self-cleavage amounted to 0.13. The result for U26A A65G A78U reads 0.06; that for U26A U52A A57G U108C, 0.52; that for G25A U108C A138G, 1.34. The result for G25A A78G A129U reads 1.16; that for G27U U45C A64C G106U A141G, 0.17; that for U29C A43G A124U, 1.9. As to U26C C37G A77U A107G C146U, the self-cleavage was found to be 0.88. Consider G27A C76U A121G, for which the self-cleavage amounted to 1.85.

Regarding U26C U85A U109C, the self-cleavage is 0.17. With U29C A42U U134C U143A, the self-cleavage is 1.3.

Turning to U26G A79U U115C A129U A138G, the self-cleavage is 2.9. On to U26C U52C U115C A121U, for which the self-cleavage came out at 1.84. The result for U26C A43G A64G reads 0.61; that for U26C U96C A107G, 0.13. The result for U26C U46A A59G U115C reads 0.3; that for G27A A30G A78G, 1.59; that for U26C G41A A59G A117C, 0.04.

For U26C A69G A78U U100C U112C, the self-cleavage was determined as 0. For U29C A65G U104A A142G, the self-cleavage was 0.14.

Turning to U26C G49U A79G, the self-cleavage came out at 0.71. The result for U26C A30U A69U U91C A142G reads 0; that for G27A A30U A42G C61U, 0.04; that for U26C A43G A78G A94U U130C A138G, 0. The result for U26C A65G U119C A138G reads 0; that for U29A A31G G58U A69U C113U U119C, 0.01. On to U26C U39A U47A U108C, for which the self-cleavage was 1.92. The result for C28A U45C C51U G55A A59U A94U reads 0.01; that for U26A U39G U46G G53A, 0.57. Next, U26A A92G C128U: 0.13. Next, C28U C61U A94G: 0.12; U29C A64G G80A A94U: 0.18; U26A G48A U81C: 0.88. Regarding U29C A43G U46A U119C, the self-cleavage came to 1.23. Next, U26A G82A G88A: 0.08.
